This note sets out measurements from the CheMixHub viscosity set.

SMILES strings stand for the structures. ± gives the uncertainty stated by the source. The source holds more than one record for some entries. The other results are left out here. The source may hold further records. Results that share an entry repeat one measurement in other runs, samples, wells, individuals or studies. A tag in brackets gives the origin of a value. Letters hold for one entry only. Marks such as (2×) give the number of equal values in this list.

Consider `O=C1CCCCC1`, for which the viscosity reads like this: (298.15 K, 101.33 kPa) 1.819 ± 0.023 mPa·s [study A] and 2.003 ± 0.018 mPa·s [study B] and 2.229 ± 0.019 mPa·s, 2.229 ± 0.029 mPa·s [study C] and 2.229 ± 0.051 mPa·s, 2.229 ± 0.013 mPa·s [study D]; (303.15 K, 101.33 kPa) 1.799 ± 0.014 mPa·s, 1.799 ± 0.023 mPa·s [study A] and 1.799 ± 0.042 mPa·s, 1.799 ± 0.011 mPa·s [study B]; (308.15 K, 101.33 kPa) 1.516 ± 0.019 mPa·s [study A] and 1.635 ± 0.011 mPa·s, 1.635 ± 0.02 mPa·s [study B] and 1.635 ± 0.038 mPa·s, 1.635 ± 0.01 mPa·s [study C].

For the compound `CCCCCCO`, the viscosity runs as follows: (298.15 K, 101 kPa) 4.48 ± 0.03 mPa·s [study A] and 4.329 ± 0.11 mPa·s [study B] and 4.611 ± 0.042 mPa·s [study C] and 4.48 ± 0.01 mPa·s [study D]; (298.15 K, 101.33 kPa) 4.317 ± 0.097 mPa·s, 4.486 ± 0.041 mPa·s (2×), 4.5 ± 0.039 mPa·s, 4.274 ± 0.094 mPa·s, 4.216 ± 0.18 mPa·s (2×), 4.394 ± 0.051 mPa·s, 4.574 ± 0.2 mPa·s [several studies]; (303.15 K, 101 kPa) 3.765 ± 0.32 mPa·s, 3.818 ± 0.035 mPa·s, 3.765 ± 0.03 mPa·s, 3.807 ± 0.047 mPa·s (2×), 3.675 ± 0.022 mPa·s, 3.701 ± 0.11 mPa·s, 3.883 ± 0.13 mPa·s, 3.751 ± 0.75 mPa·s, 3.537 ± 0.35 mPa·s, 3.675 ± 0.065 mPa·s [several studies]; (303.15 K, 101.33 kPa) 3.818 ± 0.035 mPa·s, 3.769 ± 0.034 mPa·s, 3.67 ± 0.083 mPa·s, 3.603 ± 0.08 mPa·s, 3.567 ± 0.16 mPa·s (2×), 3.733 ± 0.044 mPa·s, 3.861 ± 0.089 mPa·s, 3.781 ± 0.17 mPa·s, 3.861 ± 0.034 mPa·s, 3.792 ± 0.049 mPa·s, 3.751 ± 0.043 mPa·s, 3.97 ± 0.16 mPa·s [several studies]; (308.15 K, 101 kPa) 3.604 ± 0.72 mPa·s [study A] and 3.34 ± 0.03 mPa·s [study B] and 3.3 ± 0.28 mPa·s [study C] and 3.107 ± 0.064 mPa·s [study D] and 3.391 ± 0.03 mPa·s [study E] and 3.33 ± 0.01 mPa·s [study F] and 3.108 ± 0.019 mPa·s [study G]; (308.15 K, 101.33 kPa) 3.13 ± 0.072 mPa·s [study A] and 3.022 ± 0.068 mPa·s [study B] and 2.766 ± 0.12 mPa·s [study C] and 3.252 ± 0.14 mPa·s [study D] and 2.766 ± 0.12 mPa·s [study E] and 3.213 ± 0.038 mPa·s [study F]. Also, the viscosity (313.15 K, 101.33 kPa) was 2.934 ± 0.027 mPa·s [study A] and 3.11 ± 0.024 mPa·s [study B] and 2.812 ± 0.039 mPa·s [study C] and 3.11 ± 0.036 mPa·s [study D].

As for `CC(=O)CC(C)C`, the viscosity (303.15 K, 101 kPa) is 0.515 ± 0.022 mPa·s [study A] and 0.505 ± 0.017 mPa·s [study B] and 0.497 ± 0.1 mPa·s [study C] and 0.518 mPa·s [study D].

In the case of `CC(C)CC(C)(C)C`, the viscosity is 0.476 ± 0.01 mPa·s [study A] and 0.4788 ± 0.0048 mPa·s [study B] and 0.496 ± 0.009 mPa·s [study C] and 0.4716 ± 0.0049 mPa·s [study D] (298.15 K, 101 kPa); 0.451 ± 0.013 mPa·s [study A] and 0.436 ± 0.013 mPa·s [study B] and 0.466 ± 0.004 mPa·s [study C] and 0.4517 ± 0.0047 mPa·s [study D] (303.15 K, 101.33 kPa); 0.405 ± 0.009 mPa·s [study A] and 0.398 ± 0.011 mPa·s [study B] and 0.4008 ± 0.0052 mPa·s [study C] and 0.3999 ± 0.0045 mPa·s [study D] (313.15 K, 101 kPa).

What is called viscosity is the resistance of a fluid to flow.
